Some of the results follow.

Results on ten molecules are retold here after the antibiotic and cytotoxicity screens of Wong et al. (2023).

The test system of one assay is HSkMC. Put plainly: cytotoxicity call (relative viability < 0.9). Conditions: 10 µM.
Another assay relates to S. aureus RN4220. Put plainly: growth inhibition call (relative growth <= 0.2). Conditions: 50 µM.

In the case of `CO[C@H]1CN(C)C(=O)c2cc(NC(=O)NC3CCCCC3)ccc2OC[C@@H](C)N(CCc2ccccc2)C[C@H]1C`, the cytotoxicity call with HSkMC was “inactive”. The growth inhibition call in the assay on S. aureus RN4220 is “inactive”.

As to `Cc1ccc(S(=O)(=O)Nc2ccc3c(c2)C(=O)N([C@@H](C)CO)C[C@H](C)[C@@H](CN(C)S(C)(=O)=O)O3)cc1`, the cytotoxicity call in the assay on HSkMC was “inactive”. Also, the growth inhibition call in the assay with S. aureus RN4220 was “inactive”.

Take `C[C@@H]1CN([C@H](C)CO)C(=O)c2cc(NC(=O)CCCCCC(=O)Nc3ccccc3N)ccc2O[C@@H]1CN(C)S(C)(=O)=O`: the cytotoxicity call in the assay with HSkMC was “inactive”. For the same molecule, in the assay on S. aureus RN4220, the growth inhibition call is “inactive”.

For `C[C@H]1CN([C@@H](C)CO)C(=O)c2cccc(NC(=O)Nc3cccc4ccccc34)c2O[C@H]1CN(C)Cc1ccc(-c2ccccc2)cc1`, the cytotoxicity call with HSkMC is “inactive”. Moreover, in the assay with S. aureus RN4220, the growth inhibition call is “inactive”.

For `COc1ccc(S(=O)(=O)N(C)C[C@H]2OCCCC[C@H](C)Oc3ccc(NS(=O)(=O)c4ccc(Cl)cc4)cc3C(=O)N([C@@H](C)CO)C[C@H]2C)cc1`, the cytotoxicity call in the assay on HSkMC was “inactive”. Moreover, the growth inhibition call in the assay with S. aureus RN4220 was “inactive”.

As for `C[C@@H]1CN([C@H](C)CO)C(=O)c2cccc(NC(=O)Nc3ccccc3)c2O[C@@H]1CN(C)Cc1ccc(C(=O)Nc2ccccc2N)cc1`, in the assay on HSkMC, the cytotoxicity call is “inactive”. Besides, the growth inhibition call in the assay on S. aureus RN4220 is “inactive”.

`CC(C)NC(=O)N(C)C[C@H]1Oc2ccc(NC(=O)CCN3CCOCC3)cc2CC(=O)N([C@@H](C)CO)C[C@H]1C`: in the assay with HSkMC, the cytotoxicity call is “inactive”. Also, the growth inhibition call in the assay with S. aureus RN4220 is “inactive”.

As for `COc1ccc(-c2cn(CCNC(=O)[C@@H](NS(=O)(=O)c3ccc(C)cc3)C(C)C)nn2)cc1OC`, the cytotoxicity call in the assay on HSkMC is “inactive”. Further, the growth inhibition call in the assay with S. aureus RN4220 is “inactive”.

On to `COc1ccc2c3c(n(c2c1)C)[C@H](CO)N(C[C@]13CN(CC2CCOCC2)C1)C(=O)Cc1ccccn1`, for which the cytotoxicity call in the assay on HSkMC is “inactive”. The growth inhibition call in the assay on S. aureus RN4220 is “inactive”.

In the case of `C=CCOC(=O)[C@H]1[C@@H]2C(=O)O[C@@H](c3ccccc3)[C@@H](c3ccccc3)N2[C@@H](c2ccc(OCCOC(=O)[C@@H]3C[C@@H]4C(=O)N5CCC[C@H]5C(=O)N4[C@@H]3c3cccc(OCCO)c3)cc2)[C@]12C(=O)Nc1ccc(I)cc12`, the cytotoxicity call in the assay on HSkMC (human skeletal muscle cells) was “inactive”. Also, the growth inhibition call in the assay on S. aureus RN4220 was “inactive”.
